# Out of some 310,000 compounds screened, about 14,000 (4.5%) showed an effect of 50% or more. Effects have a minus sign here. This is one part of the list.
# Target: human ether-à-go-go-related gene (hERG) potassium channel (human, UniProt Q12809)
# Test: primary screen, population patch clamp on CHO cells stably expressing hERG
# 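Note: peak tail current of the secondary pulse compared with the same well before compound.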
# human ether-à-go-go-related gene (hERG) potassium channel, sequence (Q12809 whole entry, looked up): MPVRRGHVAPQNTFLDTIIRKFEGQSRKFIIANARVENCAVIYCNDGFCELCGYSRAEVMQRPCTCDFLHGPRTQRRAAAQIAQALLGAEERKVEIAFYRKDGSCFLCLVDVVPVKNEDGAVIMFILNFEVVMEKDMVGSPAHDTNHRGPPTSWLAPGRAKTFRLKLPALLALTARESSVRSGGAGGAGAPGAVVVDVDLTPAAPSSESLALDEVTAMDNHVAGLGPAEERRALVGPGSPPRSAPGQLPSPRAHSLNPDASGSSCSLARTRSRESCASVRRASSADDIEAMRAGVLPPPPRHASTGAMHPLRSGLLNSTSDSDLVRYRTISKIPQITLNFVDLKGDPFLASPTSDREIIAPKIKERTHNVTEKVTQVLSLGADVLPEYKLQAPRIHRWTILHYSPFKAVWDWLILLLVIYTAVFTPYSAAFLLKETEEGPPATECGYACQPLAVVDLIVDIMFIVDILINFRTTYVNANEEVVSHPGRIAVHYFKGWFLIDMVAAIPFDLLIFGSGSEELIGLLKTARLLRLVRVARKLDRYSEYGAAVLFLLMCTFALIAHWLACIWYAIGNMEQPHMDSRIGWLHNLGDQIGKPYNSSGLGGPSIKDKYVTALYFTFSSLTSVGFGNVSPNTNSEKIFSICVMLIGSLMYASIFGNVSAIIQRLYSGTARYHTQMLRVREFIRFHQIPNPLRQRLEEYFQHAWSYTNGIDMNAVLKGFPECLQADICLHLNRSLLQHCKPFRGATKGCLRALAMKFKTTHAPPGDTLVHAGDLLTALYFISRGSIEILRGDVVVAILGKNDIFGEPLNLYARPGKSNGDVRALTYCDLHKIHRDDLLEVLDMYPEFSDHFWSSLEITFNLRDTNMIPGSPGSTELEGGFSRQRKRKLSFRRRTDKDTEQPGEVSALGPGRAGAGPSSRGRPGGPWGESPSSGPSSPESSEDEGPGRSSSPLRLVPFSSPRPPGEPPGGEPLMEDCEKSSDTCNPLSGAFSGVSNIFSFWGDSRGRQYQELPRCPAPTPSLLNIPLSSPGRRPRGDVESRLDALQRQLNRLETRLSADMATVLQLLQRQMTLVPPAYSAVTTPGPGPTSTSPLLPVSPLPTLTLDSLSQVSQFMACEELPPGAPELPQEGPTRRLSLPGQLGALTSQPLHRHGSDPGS
row,Compound,"hERG current change (%, negative = inhibition) at 10uM"
1,COc1ccc(C(=O)C(OC(=O)CNC(=O)c2ccco2)c2ccccc2)cc1 (stereo not shown),2.95%
2,Cc1ccc2c(c1)C(c1ccccc1)N(C(=O)c1ccc(F)cc1)CC(=O)N2 (stereo not shown),-6.99%
3,CC(C)c1ccc(NC(=O)C2CCN(c3ncnc4c3nc3n4CCCCC3)CC2)cc1,14.4%
4,Cc1nc(N2CCN(c3ccccn3)CC2)c2c(C)c(C(=O)Nc3ccc(F)c(Cl)c3)sc2n1,14.2%
5,CN(C(=O)CCNC(=O)Cn1cnc2ccccc2c1=O)c1ccc(F)cc1,19.2%
6,COc1ccc(Nc2ncnc3sccc23)cc1OC,11.6%
7,O=[N+]([O-])c1cc(Br)c(O)c(/C=N/Nc2nnnn2-c2cccc3ccccc23)c1,0.778%
8,Fc1ccc(C(Nc2ccccn2)c2c[nH]c3ccccc23)cc1 (stereo not shown),-5.21%
9,CCC(=O)Nc1ccc(C(=O)Nc2ccc3c(c2)C(=O)N(CC2CCCO2)C3=O)cc1 (stereo not shown),8.91%
10,O=C(c1ccco1)N1CCC(n2nnc3ccccc32)CC1,-17.1%
11,CC(=O)Nc1ccc(NC(=O)C/C(C)=N/NC(=O)C(=O)Nc2ccc(C)c(Cl)c2)cc1,9.93%
12,Cc1ccc(NC(=S)Nc2ccc(OC(F)F)c(Cl)c2)cc1F,2.28%
13,Cc1ccccc1CSCC(=O)Nc1ccccc1-c1ccccc1,4.91%
14,Cn1c(Cl)c(/C=N/OC(=O)c2cccc(Cl)c2)c2ccccc21,2.86%
15,CCOc1ccc(N=C2C(=O)N(CN3CCOCC3)c3ccccc32)cc1,-5.44%
16,Cc1nc2ccccc2c(=O)n1NC(=O)c1c(O)c2c(n(CC(C)C)c1=O)CCCC2,-8.15%
17,COc1ccc(CCN=CC2=C(O)CCCC2=O)cc1OC,20.7%
18,CN(CCCNC(=O)Cn1cccc1C(=O)c1ccccc1)C1CCCCC1,-39.3%
19,Cl.c1ccc(OCC2CCNCC2)nc1,5.06%
20,Cc1cccc(NC(=O)CC2Nc3cccc4cccc(c34)NC2=O)c1 (stereo not shown),-9.15%
21,CC(=O)/C=C(\C)NCCNc1c(F)c(F)c(CO)c(F)c1F,5.71%
22,Cc1ccc(C(C)C)c(OCC(=O)Nc2ccc3c(c2)nc(CN2CCCC2)n3C)c1,-76.2%

row,Compound,"hERG current change (%, negative = inhibition) at 10uM"
1,Cn1c(=O)c2c(nc(SCCN3CCOCC3)n2C)n(C)c1=O,16.9%
2,O=C(CNc1ccccc1)N/N=C/c1ccc([N+](=O)[O-])cc1,-8.81%
3,COc1ccc(CNc2oc(-c3cccc4ccccc34)nc2P(=O)(OC)OC)cc1,4.65%
4,CC(=O)c1cccc(Nc2c3c(nc4ccccc24)CCC3)c1.Cl,-68.8%
5,CCOC(=O)C1(Cc2ccccc2C)CCCN(C(=O)COC)C1 (stereo not shown),21.5%
6,Cc1c(C(=O)Nc2ccncc2)sc2nc(-c3ccccc3)cn12,-12.5%
7,CCCCCn1c(SCC(=O)OC)nc2c1c(=O)[nH]c(=O)n2C,-60.7%
8,CCC1CCCCN1c1cc(C)nc2cc(-c3cccc(C)c3)nn12 (stereo not shown),-1.65%
9,O=C(Nc1nc2ccc(F)cc2s1)C1CCN(S(=O)(=O)c2cc([N+](=O)[O-])ccc2Cl)CC1,9.6%
10,Cc1c(NC(=O)C2CC=CCC2C(=O)O)c(=O)n(-c2ccccc2)n1C (stereo not shown),-10.6%
11,CN(Cc1nc2c(s1)CCCC2)C(=O)CCc1nnc(-c2ccccc2)o1,-10.5%
12,COc1ccccc1Cc1noc(COc2cccc(C)c2C)n1,3.03%
13,Cc1nnsc1NC(=O)OCCCl,14.2%
14,Cc1ccc(COCCN2CCN(S(=O)(=O)c3ccc(C)cc3)CCC2=O)cc1,6.17%
15,Cc1onc(-c2c(Cl)cccc2Cl)c1C(=O)Nn1cnnc1,10.6%
16,O=C(CNC(=O)c1ccccc1F)OCc1nc2ccccc2s1,20.6%
17,CC(=O)N1CCCc2cc(S(=O)(=O)N3CCN(c4ccccn4)CC3)ccc21,-4.38%
18,CC(C)Nc1cc(N2CCCC2)ccc1[N+](=O)[O-],-7.55%
19,Cc1cc(/C=C2\SC(=S)N(C)C2=O)c(C)n1-c1ccccc1O,1.43%
20,CCCCCCCC(=O)Oc1ccc(C(=O)Nc2cc(C)on2)cc1,21.5%
21,CC1CC(=O)c2cnc(N)nc2C1 (stereo not shown),-3.43%
22,CCOc1ccccc1NC(=O)CN1C(=O)C(C)SC(C)C1=O (stereo not shown),14%

row,Compound,"hERG current change (%, negative = inhibition) at 10uM"
1,C=CCC1NS(=O)(=O)OC2CCCC12 (stereo not shown),10.6%
2,CN(C)/N=C/c1ccc(/C=N/NC(N)=S)o1,5.07%
3,N#CCC(=O)NNC(=S)NC(=O)C(c1ccccc1)c1ccccc1,5.41%
4,O=C(NCc1ccc2c(c1)OCO2)C1CCCN(S(=O)(=O)c2cccnc2)C1 (stereo not shown),7.92%
5,O=C(NC(=S)Nc1cc([N+](=O)[O-])ccc1Cl)c1ccccc1,-0.0499%
6,CCOc1cc(C2NC(=O)CCC2[N+](=O)[O-])cc(Br)c1OCC (stereo not shown),-24.2%
7,COCCNC(=O)c1ccc2c(c1)nc(C)n2-c1cccc(Cl)c1,2.88%
8,CCOc1ccccc1OCC(=O)Nc1ccc2[nH]c(=O)[nH]c2c1,12.3%
9,NS(=O)(=O)c1ccc(NS(=O)(=O)c2ccc(C3CNC(=O)C3)cc2)cc1 (stereo not shown),16.2%
10,Cc1cc(NC(=O)CCCN2C(=O)c3cccnc3C2=O)no1,2.62%
11,CC(c1nnc(SCC(=O)NC(=O)NCc2ccco2)n1-c1ccc(Cl)cc1)N(C)C (stereo not shown),-8.66%
12,CC(C)CC(=O)NCCCN1CCN(CCCNC(=O)CC(C)C)CC1,17.6%
13,O=C(Nn1c(SCc2ccccc2F)nc2ccsc2c1=O)c1ccccc1,-7.82%
14,CCc1oc(C(=O)O)cc1COC,-9.57%
15,CC(=O)N1c2ccccc2C2(C)C(C1(C)C)C2(Cl)Cl (stereo not shown),2.78%
16,CCCc1nc2c([nH]1)c(=O)n(C)c(=O)n2C,15.8%
17,CCc1nn(-c2cc(Cl)ccc2OC)c2c1C(=O)CCC2,-10.4%
18,Cc1cc(C(=O)NNc2ccc(C)c(C)c2)no1,7.51%
19,Cc1cc(OC(C)C(=O)N2CCN(c3ccc(F)cc3)CC2)c2c(C)cc(=O)oc2c1 (stereo not shown),-1.27%
20,CN(C)S(=O)(=O)c1cccc(NC(=O)COC(=O)C2CCN(C(=O)c3ccc(F)cc3)CC2)c1,-50.8%
21,CC1CN(Cc2nc3c(c(=O)[nH]c(=O)n3C)n2CCN2CCOCC2)CC(C)O1 (stereo not shown),1.59%
22,CC(=O)Nc1ccc(NC(=O)c2c(C)c(-c3ccccc3)nc3ccccc23)cc1,-11.2%

row,Compound,"hERG current change (%, negative = inhibition) at 10uM"
1,O=C(Cc1ccc(Br)cc1)N1CCN(c2ccccc2)CC1,-35.7%
2,CCOc1ccc(NC(=O)C2CCCN(S(=O)(=O)c3cnc[nH]3)C2)cc1 (stereo not shown),-1.14%
3,CN(C)CCNC(=O)c1c(O)c2c([nH]c1=O)CCCC2,12.7%
4,CC(C)(C)c1csc(N(CCC#N)CCC#N)n1,2.31%
5,CCC(C)(C)n1nnnc1C(c1cccnc1)N1CCC(Cc2ccccc2)CC1 (stereo not shown),-46.2%
6,O=C(CCCN1C(=O)/C(=C/c2ccccc2Cl)SC1=S)NNC(=O)c1ccc(Cl)cc1,6.89%
7,COc1ccc(C(C(=O)NC2CCCCC2)N(C(=O)CCl)c2ccc(OC)cc2)cc1 (stereo not shown),-0.0951%
8,Cc1ccc2nc(-c3ccc(NC(=O)COC(=O)c4ccc([N+](=O)[O-])o4)cc3)sc2c1,-1.6%
9,CC(=O)c1ccc(Nc2nc3ccccc3nc2NS(=O)(=O)c2cccs2)cc1,14.9%
10,CCc1ccc(-c2cc(C)no2)cc1S(=O)(=O)NC(C)Cc1ccco1 (stereo not shown),-19.4%
11,Cc1nc2sc(C(c3cccc(F)c3)N3CCOCC3)c(O)n2n1 (stereo not shown),9.86%
12,COC(=O)c1sc(-c2ccccc2)cc1NC(=O)C1CC1,11.3%
13,COCCCn1ccc(O)c(Cc2ccc(F)cc2)c1=O,1.69%
14,CC(=O)Nc1ccc(C(c2c(O)c3ccccc3oc2=O)c2c(C)n(C)n(-c3ccccc3)c2=O)cc1 (stereo not shown),-6.59%
15,CCC1(c2ccccc2)NC(=O)N(CC(=O)Nc2ccc(S(=O)(=O)Nc3ncccn3)cc2)C1=O (stereo not shown),-2.42%
16,CCOc1ccc(N(CC)S(=O)(=O)c2ccc3c(c2)n(C)c(=O)c(=O)n3C)cc1,-14.1%
17,CN(C)CCNC(=O)c1sc2nc(-c3ccccc3)cc(C(F)(F)F)c2c1N,-57.8%
18,CCn1cnc2c1c(=O)n(CC(=O)NN)c(=O)n2Cc1ccccc1,18.7%
19,CN(CC(=O)Nc1c(Cl)cccc1Cl)C(=O)c1cc2ccccc2cc1O,-4.77%
20,CC(=O)c1c(O)c2ccccc2n(C(C)C)c1=O,11.7%
21,CC(C)OC(=O)CC(=O)CSc1nc(-c2ccc(F)cc2)cc(-c2ccccc2)c1C#N,23%
22,CC(C)(C)OC(=O)N1CCC(Cc2cc(-c3ccc(Cl)cc3)no2)(C(=O)O)CC1,-3.82%
